# PubChem BioAssay AID504832 (National Center for Advancing Translational Sciences (NCATS), 2011)
# Screen size: about 310,000 compounds; about 18,000 (5.8%) were called active. The inconclusive results got no clear call from the source; some entries with a clear call stand among them for comparison. Calls come from the whole dose curve; as a rule, active = well fitted inhibition curve with a large enough effect; inconclusive = small, poorly fitted or top-dose-only effect, or another doubt; inactive = no such curve, though single readings can be large or run the other way. No potency is given beside an inconclusive call; the fits are too rough.
# Assay: Primary qHTS for delayed death inhibitors of the malarial parasite plastid, 48 hour incubation
# Settings: P. falciparum luciferase growth in erythrocytes; series mostly up to 28.7 µM
# Outline: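 Luminescence readout; reporter = integrated firefly luciferase in P. falciparum. RBC culture at 2% hematocrit, 0.1% parasitemia final, 37 C/5% CO2; decreased signal taken as growth inhibition.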
# % is set by controls: 0 for no effect and ±100 for the full control effect; potency is the fitted concentration of half-maximal effect; tags give direction and shape of the fitted curve.
SMILES,Potency,"activity change, negative = inhibition"
C[N+]1(CC2COC3(CCCCC3)O2)CCCCC1 (configuration not stated),"inconclusive [inhibitor, partial curve]",
O=C1CCC/C(=N/Nc2ccc(Cl)cc2)C1,"inconclusive [inhibitor, single point]",
O=C(COc1ccc(Cl)cc1)N(Cc1cccs1)C1CCS(=O)(=O)C1 (configuration not stated),"inconclusive [inhibitor, full curve, poor fit]",
COc1ccc(NC(=O)c2ccc(Br)o2)cc1,inactive,
CCCCC1(Cc2ccc([N+](=O)[O-])cc2)C(=O)N(c2ccccc2)N(c2ccccc2)C1=O,active: 4.15 µM,
CC(CCc1ccccc1)NC(=O)C1CCCN(c2nnc(-n3cccc3)s2)C1 (configuration not stated),"inconclusive [inhibitor, partial curve, poor fit]",
COc1cc(OC)cc(C(=O)Nc2ccc(S(=O)(=O)N3CCOCC3)cc2)c1,"inconclusive [inhibitor, partial curve, poor fit]",
CC(C)NC(=O)C1CCN(C(=O)c2ccc(-c3ccccc3)cc2)CC1,inactive,
COc1cccc(N2CCN(CC(=O)Nc3nnc(-c4ccccc4)s3)CC2)c1,"inconclusive [inhibitor, partial curve]",
O=C(Cc1ccccc1)NC(=S)Nc1ccc(OC(F)F)cc1,inactive,
COC(=O)C1=C(C)NC(=O)NC1c1ccc(-c2ccc(F)cc2)o1 (configuration not stated),"inconclusive [inhibitor, single point]",
Cc1ccccc1C(=O)c1cccn1CC(=O)N1CCCCCC1,"inconclusive [inhibitor, single point]",
Cc1noc(/C=C/N(C)C)c1S(=O)(=O)N1CCCC(C(=O)NCc2ccccc2Cl)C1 (configuration not stated),"inconclusive [inhibitor, single point]",
CCOC(=O)c1[nH]c(C)c(/C(O)=C2\C(=O)C(=O)N(CCN3CCOCC3)C2c2ccco2)c1C (configuration not stated),inactive,
Cc1c(Cl)cccc1N1C(=O)CC(NNC(=O)c2cccnc2)C1=O (configuration not stated),inactive,
Cc1nn(-c2cccc(Cl)c2)c(Cl)c1/C=N/NC(=O)c1cccs1,active: 10.4 µM,
CC(C)n1ncc2c(C(=O)NCCc3ccc(F)cc3)cc(C3CC3)nc21,active: 9.28 µM,
COCCCN=Cc1c(C)[nH]n(-c2ccc(Br)cc2Br)c1=O,inactive,
CCCCNC(=O)c1ccc2c(c1)N(C)C(=O)c1ccccc1S2,"inconclusive [inhibitor, single point]",
CC(C)CNC(=O)c1cccc(NC(=O)C2CCCO2)c1 (configuration not stated),inactive,
CCN(CC(=O)NCc1cccs1)S(=O)(=O)c1cccc(Br)c1,"inconclusive [inhibitor, partial curve, poor fit]",
FC(F)Oc1ccc(NC(=S)N2CCN(Cc3ccccc3)CC2)cc1,"inconclusive [inhibitor, partial curve, poor fit]",
CCOC(=O)c1cnc2c(cnn2C)c1NCCCn1ccnc1,inactive,
CCn1c(SC(C)C(=O)NCC2CCCO2)nc2ccccc21 (configuration not stated),inactive,

SMILES,Potency,"activity change, negative = inhibition"
CCOc1cccc(/C=N/NC(=S)Nc2cc(S(=O)(=O)N3CCOCC3)ccc2N2CCOCC2)c1O,"inconclusive [inhibitor, single point]",
COc1ccc(C(=O)NC2CCc3ccccc32)cc1OC1CCN(C(C)C)CC1 (configuration not stated),"inconclusive [inhibitor, partial curve]",
COc1ccc(N/C=C(\C(C)=O)c2ccc(OC)c(OC)c2)cc1OC,"inconclusive [inhibitor, single point]",
CCOC(=O)N1CCC(NC(=O)CSCc2nc(-c3ccc(C)cc3)oc2C)CC1,inactive,
NC(=O)c1ccc2c(=O)c(O)c(-c3cc(Cl)c(N)c(Cl)c3)[nH]c2c1,"inconclusive [inhibitor, single point]",
CN(C(=O)CN1CC=C(c2ccccc2)CC1)c1c(N)n(Cc2ccccc2)c(=O)[nH]c1=O,"inconclusive [inhibitor, single point]",
COc1ccc(/C=C/C(=O)O)cc1S(=O)(=O)N1CCc2ccccc2C1,"inconclusive [inhibitor, single point]",
CC1Cc2cc(S(=O)(=O)CCC(=O)NC3CCCCC3)ccc2N1C(=O)C1CC1 (configuration not stated),"inconclusive [inhibitor, single point]",
Cc1ccc(/C=N/OC(=O)c2nn(C)cc2Cl)cc1,inactive,
Cc1nnc(SCC(=O)NC2CCCCCC2)n1C,inactive,
CC(C)(C)Nc1nc(SCc2ccccc2)nc(N2CCOCC2)n1,"inconclusive [inhibitor, partial curve, poor fit]",
COc1cc(-c2cc(=O)c3c(O)c(OC)c(OC)cc3o2)cc(OC)c1O,"inconclusive [inhibitor, partial curve]",
COc1cccc(CN2CC(C(=O)N(C)Cc3ccc(C)cc3)CCC2=O)c1 (configuration not stated),"inconclusive [inhibitor, single point]",
CC12COC3(C(=O)N4CCN(c5ccccn5)CC4)CC1CCC32C (configuration not stated),"inconclusive [inhibitor, single point]",
OC(c1cc(-c2ccc(C(F)(F)F)cc2)nc(C(F)(F)F)c1)C1CCCCN1 (configuration not stated),active: 0.104 µM,
COCCn1c(=NC(=O)CSCC(=O)Nc2cc(C)on2)sc2cc(C(=O)OC)ccc21,"inconclusive [inhibitor, partial curve, poor fit]",
O=C(COc1ccccc1)N=C1SC2CS(=O)(=O)CC2N1CCc1ccccc1 (configuration not stated),inactive,
CNS(=O)(=O)c1ccc(NC(=O)c2cncc(Br)c2)cc1,,inactive: -15.5% [at 5.75 µM]
COc1ccc(N(C)C(=O)c2oc(=O)c3ccccc3c2-c2ccccc2)c(OC)c1,"inconclusive [inhibitor, single point]",
CCOc1ccc(C2C(C#N)=C(N)Oc3cc(C)n(CCN(C)C)c(=O)c32)cc1OCC (configuration not stated),inactive,
Cn1nc(C(=O)Nc2ccc(Br)cc2)cc1C(=O)Nc1ccc(Br)cc1,inactive,
COc1cccc(OCc2cc(C3Nc4ccccc4C(=O)N3Cc3ccco3)ccc2OC)c1 (configuration not stated),active: 8.28 µM,
CCOc1ccc(N(CC(=O)Nc2cc(Cl)ccc2C)S(C)(=O)=O)cc1,"inconclusive [inhibitor, partial curve, poor fit]",
Cc1cccc(NC(=O)c2nc[nH]c2C(=O)N[C@@H](Cc2ccccc2)C(=O)OCc2ccccc2)c1,"inconclusive [inhibitor, single point]",

SMILES,Potency,"activity change, negative = inhibition"
O=C1/C(=C\c2cccnc2)N2CCC1CC2,"inconclusive [inhibitor, partial curve]",
S=c1[nH]nc(-c2ccco2)n1-c1ccc(Cl)cc1,inactive,
Cc1cc(Nc2cccc(O)c2)c2ccccc2n1,"inconclusive [inhibitor, single point]",
COc1ccc(-c2nnc(SCc3nnc(-c4ccc(Cl)cc4)o3)n2-c2ccccc2)cc1,inactive,
CC(=O)N(\C=C/C=C/C=C1\Sc2ccccc2C1=O)c1ccccc1,"inconclusive [inhibitor, full curve]",
Cc1sc2nc(-c3ccco3)oc(=O)c2c1C,inactive,
CC(CCc1ccc(O)cc1)NC(c1ccccc1)c1ccc(Cl)cc1 (configuration not stated),active: 9.28 µM,
COc1ccc(CNC(=O)CN(C(=O)CCC(=O)Nc2nccs2)c2ccc(C)cc2)cc1,"inconclusive [inhibitor, single point]",
CC(C)c1nnc(NC(=O)c2ccc(N3C(=O)CCC3=O)cc2)s1,inactive,
COc1cc2nc(N3CCN(C(=O)[C@@H]4CCCO4)CC3)nc(N)c2cc1OC,"inconclusive [inhibitor, single point]",
COc1ccc(C)c2sc(N(CCCN(C)C)C(=O)c3ccc(S(=O)(=O)N(C)C)cc3)nc12,"inconclusive [inhibitor, partial curve]",
COC(=O)c1sc(NC(=O)c2ccco2)nc1C,inactive,
CNc1nc(C)cc(C)c1S(=O)(=O)c1ccc(Cl)cc1,inactive,
COc1ccc(C2CC(=O)C3=C(C2)Nc2ncnn2C3c2ccccc2)cc1 (configuration not stated),inactive,
CN1CCc2c(sc3c2C(=O)NC(c2ccc(-c4ccc(Cl)cc4)o2)N3)C1 (configuration not stated),"inconclusive [inhibitor, single point]",
CCNc1nc(N2CCCCC2)nc(-n2nnc(C(=O)OCC)c2C)n1,"inconclusive [inhibitor, single point]",
Cc1c(C(=O)N2CC[C@@H](N3CCC(O)CC3)[C@H](O)C2)[nH]c2ccc(Cl)cc12,inactive,
O=C(O)Cn1c(=O)c(F)cn(C2CCCO2)c1=O (configuration not stated),inactive,
CCOC(=O)/C=c1\s/c(=C\c2ccc3cc(OC)ccc3c2)c(=O)n1CC(=O)NCC1CCCO1 (configuration not stated),"inconclusive [inhibitor, single point]",
Cc1ccc(S(=O)(=O)N(CCC#N)CCN2CCCC2)cc1,"inconclusive [inhibitor, single point]",
O=C(NC1CCCC1)c1ccc(CS(=O)(=O)Cc2ccccc2Cl)o1,"inconclusive [inhibitor, single point]",
Cc1ccc(/C=N/NC(=O)C[n+]2ccccc2)s1,inactive,
CCOC(=O)CN(C(=O)CSc1nnc(Cc2ccccc2)n1-c1ccc(C)cc1)c1ccccc1,"inconclusive [inhibitor, single point]",
Cc1ccc(NC(=O)C2CCN(S(=O)(=O)c3c(C)noc3C)CC2)cc1C,"inconclusive [inhibitor, partial curve, poor fit]",
